The whole screen tested about 110,000 compounds, of which about 230 (0.21%) showed an effect of 50% or more. This is one part of the list.
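Also: 30 min substrate incubation versus DMSO and 10 µM JCP410 controls.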

The target in the assay is DPAP1 (Plasmodium falciparum, UniProt Q8IIJ9). The experiment in a line: primary screen, percent inhibition; read by cleavage of a fluorogenic dipeptide substrate; higher = more effect of the substance. The arrangement: species or system P. falciparum D10 trophozoite lysates; single well.
Chain of DPAP1 (Q8IIJ9 whole entry, looked up): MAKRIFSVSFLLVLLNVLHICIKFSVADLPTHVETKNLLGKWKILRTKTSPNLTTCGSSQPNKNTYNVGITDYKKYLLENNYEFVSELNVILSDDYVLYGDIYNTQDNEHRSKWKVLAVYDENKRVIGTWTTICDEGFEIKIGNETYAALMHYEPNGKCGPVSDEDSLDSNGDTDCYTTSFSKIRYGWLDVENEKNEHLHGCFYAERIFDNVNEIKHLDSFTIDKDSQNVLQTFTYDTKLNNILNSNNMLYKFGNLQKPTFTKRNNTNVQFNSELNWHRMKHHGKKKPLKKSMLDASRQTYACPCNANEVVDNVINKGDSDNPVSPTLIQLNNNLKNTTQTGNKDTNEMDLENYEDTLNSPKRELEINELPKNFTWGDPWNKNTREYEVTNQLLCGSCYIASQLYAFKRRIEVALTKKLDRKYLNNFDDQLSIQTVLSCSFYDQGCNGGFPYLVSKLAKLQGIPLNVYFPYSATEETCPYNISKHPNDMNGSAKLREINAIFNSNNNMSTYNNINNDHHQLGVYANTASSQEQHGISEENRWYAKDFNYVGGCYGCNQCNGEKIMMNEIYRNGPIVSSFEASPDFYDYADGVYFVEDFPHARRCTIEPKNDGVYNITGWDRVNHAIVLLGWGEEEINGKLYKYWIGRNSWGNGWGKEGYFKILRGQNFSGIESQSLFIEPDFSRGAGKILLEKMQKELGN
For `O=C(c1cc(S(=O)(=O)N2CCCCC2)ccc1F)N1CCCCC1`, the “% Inhibition @ 10 uM” value is listed as -5.64%.

In the case of `N#CC1=C(SCC(=O)Nc2cc(Cl)cc(Cl)c2)NC(=O)CC1c1cccs1` (stereo not shown), the “% Inhibition @ 10 uM” value is recorded as -4.48%.

Take `CCCC[C@H](NC(=O)[C@H](CC(C)C)NC(=O)[C@H](CC(C)C)NC(=O)OCc1ccccc1)C(=O)CO`: the “% Inhibition @ 10 uM” value was found to be 2.22%.

For the compound `CC1(C)CC(=O)C2=C(C1)OC(N)=C(C#N)C2Cc1ccccc1` (stereo not shown), the “% Inhibition @ 10 uM” value was determined as 0.385%.

Regarding `CC1(C(=O)Nc2ncc(Cc3cccc(Cl)c3)s2)Cc2ccccc2C(=O)O1` (stereo not shown), the “% Inhibition @ 10 uM” value is 2.57%.

Turning to `COc1cc(OC)c(OC)cc1/C=C1\N=C(c2cccc(Br)c2)OC1=O`, the “% Inhibition @ 10 uM” value is listed as -19.6%.

Take `COc1ccc(/C=C2\COc3ccc(F)cc3C2=O)cc1`: the “% Inhibition @ 10 uM” value is given as -3.79%.

As to `COc1cc(OC)c(CNC2CCCCC2C)cc1Br` (stereo not shown), the “% Inhibition @ 10 uM” value was 1.13%.

`Cc1ccc(-n2cc(-c3ccccc3)c3c(N4CCN(CCO)CC4)ncnc32)cc1Cl`: the “% Inhibition @ 10 uM” value is on record as 7.63%.

`CC1CCN(C(=O)N2c3ccccc3Sc3ccccc32)CC1`: the “% Inhibition @ 10 uM” value is recorded as -0.496%.

For the compound `CC(=O)Nc1ccc(NC(=O)C2(c3ccccc3)CCCC2)cc1`, the “% Inhibition @ 10 uM” value is recorded as -3.76%.

With `COc1ccccc1C1C(C#N)=C(N)Oc2[nH]nc(-c3cccc4ccccc34)c21` (stereo not shown), the “% Inhibition @ 10 uM” value is on record as 11.5%.

Take `CCOC(=O)N1CCN(C(=O)c2cc(C)no2)CC1`: the “% Inhibition @ 10 uM” value is recorded as -0.0115%.

Turning to `Oc1ccccc1CNC1CCCCC1`, the “% Inhibition @ 10 uM” value is -1.56%.

For the compound `Cc1ccc2c(c1)-c1onc(C(=O)N3CCCCC3c3cccnc3)c1CO2` (stereo not shown), the “% Inhibition @ 10 uM” value came to 1.11%.

As to `Cc1ccc(CN(C(=S)NCC(=O)NCc2ccco2)C2CCCCC2)cc1`, the “% Inhibition @ 10 uM” value was 1.16%.

Turning to `CC1=C(C#N)C(c2ccc(OCc3ccc(Cl)cc3)cc2)C2=C(O)CCCC2=N1` (stereo not shown), the “% Inhibition @ 10 uM” value is 4.09%.

Turning to `COC(=O)c1ccc(CN2CCCCC2C)cc1` (stereo not shown), the “% Inhibition @ 10 uM” value was -1.75%.

`CC(NC(=O)C1CCC(C/N=c2/c(N3CCCC3)c(O)c2=O)CC1)c1ccccc1` (stereo not shown): the “% Inhibition @ 10 uM” value is -2.17%.

As for `CC(C)(C)C(=O)Nc1nnc(-c2ccc(Cl)cc2Cl)s1`, the “% Inhibition @ 10 uM” value is recorded as -3.02%.

In the case of `COc1cccc(C(=O)N2CCN(Cc3ccncc3)CC2)c1`, the “% Inhibition @ 10 uM” value is 7.1%.

For the compound `Fc1ccc(-c2cc(-c3nc4c5ccccc5ncn4n3)[nH]n2)cc1`, the “% Inhibition @ 10 uM” value was 3.54%.

In the case of `Cc1ccc(NC(=O)CCc2c(C)nc3ncnn3c2C)nc1`, the “% Inhibition @ 10 uM” value is -0.465%.

For `COc1ccc(C(=O)C(OC(=O)c2ccncc2)c2ccccc2)cc1` (stereo not shown), the “% Inhibition @ 10 uM” value is on record as -0.273%.

In the case of `O=C(NCc1cccnc1)c1cc(-c2ccco2)on1`, the “% Inhibition @ 10 uM” value is recorded as -0.0541%.

Take `OC(CN1CCOCC1)Cn1c(C(F)(F)F)nc2ccccc21` (stereo not shown): the “% Inhibition @ 10 uM” value was 0.145%.

Regarding `CC(C)(c1ccccc1)c1ccc(OCC(=O)Nc2nc[nH]n2)cc1`, the “% Inhibition @ 10 uM” value came out at 0.611%.

Take `N#C/C(=C\c1ccc(Cl)cc1)c1nc(-c2ccc([N+](=O)[O-])cc2)cs1`: the “% Inhibition @ 10 uM” value worked out at 5.64%.

`CCSc1sc(CC)cc1C(=O)O`: the “% Inhibition @ 10 uM” value is reported as -0.128%.

`O=C(Cn1ccc2ccccc2c1=O)N1CCN(Cc2ccc3c(c2)OCO3)CC1`: the “% Inhibition @ 10 uM” value was -6.13%.

With `CCC1CCc2c(sc(NC(=O)CCC(=O)O)c2C(N)=O)C1` (stereo not shown), the “% Inhibition @ 10 uM” value was -18.6%.

As to `Cc1nn(-c2ccc(F)cc2)c(-n2cccc2)c1C(=O)N1CCC(C)CC1`, the “% Inhibition @ 10 uM” value was -3.54%.

As for `COCc1cc(C)nc(SCc2ccc(Cl)cc2Cl)c1C#N`, the “% Inhibition @ 10 uM” value was -1.25%.

On to `CC(C)(C)c1ccc(OCc2ccc(C(=O)Nc3cccnc3)o2)cc1`, for which the “% Inhibition @ 10 uM” value is recorded as -11%.

Regarding `CCN(CC)CCN1C(=O)C(O)=C(C(=O)c2ccc(F)cc2)C1c1ccccc1F` (stereo not shown), the “% Inhibition @ 10 uM” value came to 1.61%.

Consider `CN1CCN(C(=O)CN2C(=O)c3ccccc3Sc3ncccc32)CC1`, for which the “% Inhibition @ 10 uM” value was -7.24%.

In the case of `O=C(NC1(C(F)(F)F)NC(=O)N(Cc2ccccc2)C1=O)c1cccs1` (stereo not shown), the “% Inhibition @ 10 uM” value is given as -1.72%.

On to `CCCCCCOc1ccc(OCC(O)CN2C(=O)NC(C)(C)C2=O)cc1` (stereo not shown), for which the “% Inhibition @ 10 uM” value is recorded as -3.4%.

On to `O=C1CC(c2ccccc2)CC(=O)C1=CNC1CCCC1` (stereo not shown), for which the “% Inhibition @ 10 uM” value is -3.78%.

`CC1=NN(C(=O)c2ccc(COc3ccc4ccccc4c3)o2)C(O)(C(F)(F)F)C1` (stereo not shown): the “% Inhibition @ 10 uM” value was -2.83%.

Consider `COCCCNC(=O)/C(=C\c1ccccc1F)NC(=O)c1ccc(C)cc1`, for which the “% Inhibition @ 10 uM” value is -3.69%.

In the case of `CC(C)CN(CC(C)C)S(=O)(=O)c1ccc(C(=O)O)cc1`, the “% Inhibition @ 10 uM” value is on record as -3.04%.

As to `O=C(Nc1ccccc1O)c1ccc([N+](=O)[O-])cc1`, the “% Inhibition @ 10 uM” value was found to be 3.06%.

Regarding `CSc1ccc(CCNC(=O)CCCn2nc(C)c3c(C)n(-c4ccc(C)cc4)nc3c2=O)cc1`, the “% Inhibition @ 10 uM” value is listed as -3.05%.

As for `COc1ccc(CN2CCN(c3ccc(C(C)=O)cc3)CC2)cc1OC`, the “% Inhibition @ 10 uM” value is listed as -2.6%.

On to `COc1ccc2c(c1)Cc1sc(NC(=O)c3ccccc3Cl)nc1-2`, for which the “% Inhibition @ 10 uM” value turned out to be 3.25%.

Consider `COc1cc2cc(C)nc(Cc3cccc4ccccc34)c2cc1OC`, for which the “% Inhibition @ 10 uM” value is given as -0.467%.

With `Cc1noc(/C=C/N2CCOCC2)c1S(=O)(=O)N(C)CC(=O)NC1CCCCC1`, the “% Inhibition @ 10 uM” value worked out at 17.5%.

Regarding `Fc1ccc(CN2CCN(c3cccc(C(F)(F)F)c3)CC2)c(F)c1`, the “% Inhibition @ 10 uM” value is on record as -3.56%.
